Reference: the supplement of paper PMC8728848
Some of the results follow.

Tests used:
Test in all cases: glycan array binding signal (z-score within array); higher = stronger binding
Conditions in all cases: glycan notation: IUPAC condensed, linker removed
Fuc(a1-2)Gal = target: Fuc(a1-2)Gal
How it was run: (§1)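 Arrays were curated from the Consortium for Functional Glycomics database, 3228 in total, and kept only where the protein sequence was available. Binding is expressed as a within-array Z-score. This score was averaged across arrays of the same protein sequence at different concentrations or buffers and across linkers, and negative values can be read as non-binding.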

Fuc(a1-2)Gal(b1-3)GalNAc = target: Fuc(a1-2)Gal(b1-3)GalNAc
How it was run: as §1

[1] = target: Fuc(a1-2)Gal(b1-3)GalNAc(a1-3)[Fuc(a1-2)]Gal(b1-4)Glc
How it was run: as §1

[2] = target: Fuc(a1-2)Gal(b1-3)GalNAc(a1-3)[Fuc(a1-2)]Gal(b1-4)GlcNAc
How it was run: as §1

[3] = target: Fuc(a1-2)Gal(b1-3)GalNAc(b1-3)Gal
How it was run: as §1

[4] = target: Fuc(a1-2)Gal(b1-3)GalNAc(b1-3)Gal(a1-4)Gal(b1-4)Glc
How it was run: as §1

[5] = target: Fuc(a1-2)Gal(b1-3)GalNAc(b1-4)[Neu5Ac(a2-3)]Gal(b1-4)Glc
How it was run: as §1

Fuc(a1-2)Gal(b1-3)GlcNAc = target: Fuc(a1-2)Gal(b1-3)GlcNAc
How it was run: as §1

[6] = target: Fuc(a1-2)Gal(b1-3)GlcNAc(b1-2)Man(a1-3)[Fuc(a1-2)Gal(b1-3)GlcNAc(b1-2)Man(a1-6)]Man(b1-4)GlcNAc(b1-4)GlcNAc
How it was run: as §1

[7] = target: Fuc(a1-2)Gal(b1-3)GlcNAc(b1-2)Man(a1-3)[Fuc(a1-2)Gal(b1-3)GlcNAc(b1-2)Man(a1-6)]Man(b1-4)GlcNAc(b1-4)[Fuc(a1-6)]GlcNAc
How it was run: as §1

[8] = target: Fuc(a1-2)Gal(b1-3)GlcNAc(b1-3)Gal(b1-4)Glc
How it was run: as §1

[9] = target: Fuc(a1-2)Gal(b1-3)GlcNAc(b1-3)GalNAc
How it was run: as §1

[10] = target: Fuc(a1-2)Gal(b1-3)GlcNAc(b1-3)[Fuc(a1-2)Gal(b1-3)GlcNAc(b1-6)]GalNAc
How it was run: as §1

[11] = target: Fuc(a1-2)Gal(b1-3)GlcNAc(b1-3)[Gal(b1-4)GlcNAc(b1-6)]Gal(b1-4)Glc
How it was run: as §1

[12] = target: Fuc(a1-2)Gal(b1-3)GlcNAc(b1-3)[Neu5Ac(a2-6)Gal(b1-4)GlcNAc(b1-6)]Gal(b1-4)Glc
How it was run: as §1

[13] = target: Fuc(a1-2)Gal(b1-3)GlcNAc6S
How it was run: as §1

[14] = target: Fuc(a1-2)Gal(b1-3)[Fuc(a1-4)]GlcNAc
How it was run: as §1

[15] = target: Fuc(a1-2)Gal(b1-3)[Fuc(a1-4)]GlcNAc(b1-2)Man(a1-3)[Fuc(a1-2)Gal(b1-3)[Fuc(a1-4)]GlcNAc(b1-2)Man(a1-3)]Man(b1-4)GlcNAc(b1-4)GlcNAc
How it was run: as §1

[16] = target: Fuc(a1-2)Gal(b1-3)[Fuc(a1-4)]GlcNAc(b1-2)Man(a1-3)[Fuc(a1-2)Gal(b1-3)[Fuc(a1-4)]GlcNAc(b1-2)Man(a1-6)]Man(b1-4)GlcNAc(b1-4)[Fuc(a1-6)]GlcNAc(b1-4)[Fuc(a1-6)]GlcNAc
How it was run: as §1

[17] = target: Fuc(a1-2)Gal(b1-3)[Fuc(a1-4)]GlcNAc(b1-3)[Fuc(a1-3)[Gal(b1-4)]GlcNAc(b1-6)]Gal(b1-4)Glc
How it was run: as §1

[18] = target: Fuc(a1-2)Gal(b1-3)[Fuc(a1-4)]GlcNAc(b1-3)[Gal(b1-4)GlcNAc(b1-6)]Gal(b1-4)Glc
How it was run: as §1

[19] = target: Fuc(a1-2)Gal(b1-4)Fuc(a1-3)]GlcNAc(b1-2)Man(a1-3)[Fuc(a1-2)Gal(b1-4)[Fuc(a1-3)]GlcNAc(b1-2)Man(a1-6)]Man(b1-4)GlcNAc(b1-4)GlcNAc
How it was run: as §1

Fuc(a1-2)Gal(b1-4)Glc = target: Fuc(a1-2)Gal(b1-4)Glc
How it was run: as §1

Fuc(a1-2)Gal(b1-4)Glc6S = target: Fuc(a1-2)Gal(b1-4)Glc6S
How it was run: as §1

Fuc(a1-2)Gal(b1-4)GlcNAc = target: Fuc(a1-2)Gal(b1-4)GlcNAc
How it was run: as §1

[20] = target: Fuc(a1-2)Gal(b1-4)GlcNAc(b1-2)Man
How it was run: as §1

[21] = target: Fuc(a1-2)Gal(b1-4)GlcNAc(b1-2)Man(a1-3)[Fuc(a1-2)Gal(b1-4)GlcNAc(b1-2)Man(a1-6)]Man(b1-4)GlcNAc(b1-4)GlcNAc
How it was run: as §1

[22] = target: Fuc(a1-2)Gal(b1-4)GlcNAc(b1-2)Man(a1-3)[Fuc(a1-2)Gal(b1-4)GlcNAc(b1-2)Man(a1-6)]Man(b1-4)GlcNAc(b1-4)[Fuc(a1-6)]GlcNAc
How it was run: as §1

[23] = target: Fuc(a1-2)Gal(b1-4)GlcNAc(b1-2)[Fuc(a1-2)Gal(b1-4)GlcNAc(b1-4)]Man(a1-3)[Fuc(a1-2)Gal(b1-4)GlcNAc(b1-2)Man(a1-6)]Man(b1-4)GlcNAc(b1-4)GlcNAc
How it was run: as §1

[24] = target: Fuc(a1-2)Gal(b1-4)GlcNAc(b1-3)Gal(b1-4)GlcNAc
How it was run: as §1

B1: Langerin K313I (Homo sapiens), Q9UJ71 (protein)
chain: STLNAQIPELKSDLEKASALNTKIRALQGSLENMSKLLKRQNDILQVVSQGWKYFKGNFYYFSLIPKTWYSAEQFCVSRNSHLTSVTSESEQEFLYKTAGGLIYWIGLTKAGMEGDWSWVDDTPFNKVQSARFWIPGEPNNAGNNEHCGNIKAPSLQAWNDAPCDITFLFICKRPYVPSEP
glycan array binding signal (z-score) (Fuc(a1-2)Gal): -0.316
glycan array binding signal (z-score) (Fuc(a1-2)Gal(b1-3)GalNAc): -0.168
glycan array binding signal (z-score) [1]: -0.158
glycan array binding signal (z-score) [2]: -0.297
glycan array binding signal (z-score) [3]: -0.308
glycan array binding signal (z-score) [4]: -0.375
glycan array binding signal (z-score) [5]: -0.347
glycan array binding signal (z-score) (Fuc(a1-2)Gal(b1-3)GlcNAc): -0.355
glycan array binding signal (z-score) [6]: 0.11
glycan array binding signal (z-score) [7]: 0.195
glycan array binding signal (z-score) [8]: -0.379
glycan array binding signal (z-score) [9]: -0.129
glycan array binding signal (z-score) [10]: -0.021
glycan array binding signal (z-score) [11]: -0.365
glycan array binding signal (z-score) [12]: -0.168
glycan array binding signal (z-score) [13]: 0.033
glycan array binding signal (z-score) [14]: -0.272
glycan array binding signal (z-score) [15]: 0.275
glycan array binding signal (z-score) [16]: 0.377
glycan array binding signal (z-score) [17]: -0.289
glycan array binding signal (z-score) [18]: -0.34
glycan array binding signal (z-score) [19]: 0.164
glycan array binding signal (z-score) (Fuc(a1-2)Gal(b1-4)Glc): -0.149
glycan array binding signal (z-score) (Fuc(a1-2)Gal(b1-4)Glc6S): -0.294
glycan array binding signal (z-score) (Fuc(a1-2)Gal(b1-4)GlcNAc): -0.253
glycan array binding signal (z-score) [20]: -0.032
glycan array binding signal (z-score) [21]: -0.009
glycan array binding signal (z-score) [22]: 0.249
glycan array binding signal (z-score) [23]: 0.308
glycan array binding signal (z-score) [24]: 0.07
